# Results taken from the supplement of paper PMC3334620.
# Whole data set: some 33,000 sequences, median “E-score (-0.5 to 0.5)” near -0.054, cut for the highest 2% near 0.39. The list shows a part of the results.
# Biological target: Ylr278c (UniProt Q05854)
# Experiment: PBM E-score (8-mer binding enrichment) (E-score (-0.5 to 0.5)); higher = stronger / more preferred TF binding; most listed sequences are background and not binding sites
# Details: protein concentration: 200 nM; construct: GST-DNA-binding domain
# Procedure, shortened: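 GST-tagged yeast TFs (full-length or DNA-binding domain) were made by PURExpress in vitro transcription/translation and applied at about 100-200 nM to universal all-10-mer Agilent arrays. The arrays were made double-stranded by primer extension, on fresh or once-stripped slides. Bound protein was detected with fluorescent anti-GST, and scans were normalised with masliner. Each ungapped eight-base word, pooled with its reverse complement, received an E-score (modified Wilcoxon-Mann-Whitney statistic) from the Universal PBM Analysis Suite.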
row,Sequence,PBM E-score
1,GATGAACC,0.00674
2,ATAGTCCG,0.413
3,GATGGGCC,0.0873
4,AGTCATAG,-0.238
5,TAAGAGAA,-0.248
6,TGAACACA,-0.133
7,GATGGCTA,-0.0289
8,CTTTCGAA,-0.198
9,ATAGGTAC,-0.104
10,AGACCATG,-0.306
11,ACCTAGGG,-0.141
12,GTTAGAGA,-0.272
13,AATTCCCA,-0.035
14,CTCTACTC,-0.156
15,AAACTAGA,-0.217
16,AGAACTTA,0.0233
17,CACGTCAC,-0.147
18,GGGATCCA,0.18
19,CGTGTAGA,0.012
20,CAATATAA,0.0702
21,TGCGAGCA,-0.144
22,CGTACGGC,0.0326
23,ATATAACG,-0.0674
24,AGGTGACG,-0.149
25,AAGAGTCG,0.0677

row,Sequence,PBM E-score
1,CCCGAGAA,0.293
2,ATACCCAG,-0.221
3,ATTGAACA,0.011
4,ACGGCTAG,-0.0811
5,GGTGACTA,-0.0667
6,CCTGATGC,0.0346
7,AACCCATT,-0.064
8,ACTGTATG,-0.147
9,CGGCCAGA,0.173
10,GGGTCCCA,-0.115
11,CCGGCACG,0.242
12,CGGCTAAG,0.0764
13,AAAGCTAG,-0.173
14,CTCGAGGC,-0.164
15,CCCCGCAG,0.302
16,CCTCTATA,-0.301
17,ACGAAAAA,-0.195
18,CGCAGCGA,-0.0285
19,CGCGCGTC,0.216
20,ATTGTCGC,-0.0489
21,ATATGAGG,-0.0358
22,CGAAGCCC,0.0895
23,GGCCACAA,-0.15
24,AAGCAGTG,0.00988
25,GAAACGGA,0.298

row,Sequence,PBM E-score
1,CGCAGGCC,0.0932
2,AGTCGGGC,0.155
3,ACTGCTCC,0.22
4,GGAGCTGA,0.146
5,AACGCGTG,-0.0606
6,AGGTTCAG,0.0375
7,CTTCCTCC,0.0756
8,CTTAAAAA,-0.239
9,AAGTCACC,-0.13
10,CTAAGCTA,-0.168
11,ACGTCGGA,0.385
12,ACAGCTGA,-0.209
13,AGAATTAT,0.00541
14,CGCGCCGC,0.292
15,CATGGACG,-0.0676
16,CTGTGCCA,-0.172
17,CGCTCCCG,0.115
18,ACCAACCC,-0.146
19,CTTAGATC,-0.228
20,CTGAACAA,-0.015
21,CGAAATCG,0.288
22,AAGGGTAA,-0.0839
23,GATGGTCA,-0.0309
24,AAATCAGG,-0.222
25,CCAGAGGA,-0.201

row,Sequence,PBM E-score
1,CCGAACGC,0.298
2,ACACGAGG,-0.182
3,CCTCCGAG,0.426
4,TGCAAGAA,-0.0281
5,GAATGGAA,0.0768
6,GGATCGGA,0.438
7,TCTGCACA,0.0219
8,GACTGTTA,-0.189
9,CTGTTCCA,-0.233
10,AAGCAGGC,-0.148
11,ATCATCCG,0.219
12,TCGGCACA,0.159
13,ACCCGGCT,0.204
14,GACGGCCC,0.00504
15,CCGAGTTA,0.147
16,ATGGGTGC,-0.133
17,CTTCGTGA,-0.116
18,AGGAGTCC,0.13
19,AGGATCTC,-0.00173
20,AAACACTC,0.0185
21,CTGCACAA,-0.112
22,CAACCGAC,-0.00594
23,AGCACACA,-0.232
24,ATTTGATG,-0.035
25,ACGCTCTG,-0.251

row,Sequence,PBM E-score
1,CCACCATA,-0.0137
2,GTCTCCCA,-0.213
3,ACATTCAC,-0.00364
4,ACGTTAAC,-0.178
5,CGAAGATA,0.143
6,AGAAGGGG,-0.198
7,CATCCTTA,-0.207
8,CCTGCGCG,0.135
9,CCGCCTCA,0.261
10,ATTGACTA,-0.197
11,CCAGGGAG,-0.259
12,CTCTTGGA,-0.146
13,GAAATCTC,0.031
14,GGCCGTCA,0.0695
15,GTGCACGA,-0.239
16,GGAGTGAC,0.257
17,CAGAGAGG,-0.244
18,CCTTCTCG,-0.0328
19,ATGATATG,-0.00024
20,GTCGAACA,-0.147
21,ACTTTGAA,-0.0286
22,CAGTAGTC,-0.207
23,CACCGCTC,0.0836
24,ATCACCAC,0.0318
25,ATAAGGGC,-0.0568

row,Sequence,PBM E-score
1,ACTTAGCG,-0.00089
2,AGGCAAAC,-0.207
3,AATCTAAA,-0.00076
4,CTGATATC,0.105
5,AGATGAGA,-0.162
6,ACCCTGAT,-0.0325
7,AACGATGG,-0.0108
8,ACAGAACT,-0.201
9,AAGTCTAG,-0.172
10,ACCATGAC,0.0134
11,ACACAGTA,-0.188
12,ATTTGACC,0.0505
13,GCAAGGAC,0.0488
14,GCACCTGA,-0.27
15,AAGACAAC,-0.0278
16,GCGGAAAA,0.379
17,GATAACAA,0.0715
18,GAAGACTA,-0.148
19,GATGGCCC,-0.039
20,GCTACTTA,-0.351
21,ACTAACGG,0.131
22,ATGGCGTA,-0.167
23,CATGGTGA,-0.193
24,GCGTCCCC,-0.0365
25,AGGGTGGC,0.0251

row,Sequence,PBM E-score
1,CGCTCGAG,0.0105
2,GACTGAGA,-0.225
3,CTACTCCA,-0.0976
4,ACTCGCCT,-0.104
5,ACCGACCT,0.0213
6,CTCCACGC,-0.0878
7,CCCTAGTA,-0.0706
8,GACTCTGC,-0.135
9,GGAATGTA,0.255
10,CTACCTAA,-0.0506
11,AGCTGGAC,-0.145
12,AAAACTAC,0.13
13,AACAGGAT,-0.179
14,GGGCCAAC,-0.0523
15,CTTTGGCA,-0.163
16,AAAAGGAA,0.0111
17,CCAATGTC,-0.156
18,ACCGGACC,0.384
19,CATGGCTC,-0.158
20,GGTCAAAA,-0.183
21,CCCAGGGC,-0.12
22,CATGTGAA,-0.0753
